From the supplement of paper PMC8728848
Some of the results follow.

Tests used:
Experiment in all cases: glycan array binding signal (z-score within array); higher = stronger binding
Settings in all cases: glycan notation: IUPAC condensed, linker removed
[1] = biological target: Neu5Ac(a2-6)Gal(b1-4)GlcNAc(b1-3)Gal(b1-4)GlcNAc(b1-3)GalNAc
In short: (§1)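 From the Consortium for Functional Glycomics database, 3228 arrays were curated, keeping only those whose protein sequence was available. Binding is given as a within-array Z-score averaged across arrays sharing a protein sequence and across linkers. Negative Z-scores can be read as non-binding.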

[2] = biological target: Neu5Ac(a2-6)Gal(b1-4)GlcNAc(b1-3)Gal(b1-4)GlcNAc(b1-3)[Neu5Ac(a2-6)Gal(b1-4)GlcNAc(b1-3)Gal(b1-4)GlcNAc(b1-6)]GalNAc
In short: as §1

[3] = biological target: Neu5Ac(a2-6)Gal(b1-4)GlcNAc(b1-3)Gal(b1-4)GlcNAc(b1-6)[Gal(b1-3)]GalNAc
In short: as §1

[4] = biological target: Neu5Ac(a2-6)Gal(b1-4)GlcNAc(b1-3)Gal(b1-4)[Fuc(a1-3)]GlcNAc(b1-3)Gal(b1-4)[Fuc(a1-3)]GlcNAc
In short: as §1

[5] = biological target: Neu5Ac(a2-6)Gal(b1-4)GlcNAc(b1-3)GalNAc
In short: as §1

[6] = biological target: Neu5Ac(a2-6)Gal(b1-4)GlcNAc(b1-3)[Neu5Ac(a2-6)Gal(b1-4)GlcNAc(b1-6)]GalNAc
In short: as §1

[7] = biological target: Neu5Ac(a2-6)Gal(b1-4)GlcNAc(b1-6)GalNAc
In short: as §1

[8] = biological target: Neu5Ac(a2-6)Gal(b1-4)GlcNAc(b1-6)[Gal(b1-3)GlcNAc(b1-3)]Gal(b1-4)Glc
In short: as §1

[9] = biological target: Neu5Ac(a2-6)Gal(b1-4)GlcNAc(b1-6)[Gal(b1-3)]GalNAc
In short: as §1

[10] = biological target: Neu5Ac(a2-6)Gal(b1-4)GlcNAc6S
In short: as §1

Neu5Ac(a2-6)GalNAc = biological target: Neu5Ac(a2-6)GalNAc
In short: as §1

[11] = biological target: Neu5Ac(a2-6)GalNAc(b1-4)GlcNAc
In short: as §1

[12] = biological target: Neu5Ac(a2-6)GalNAc(b1-4)GlcNAc6S
In short: as §1

[13] = biological target: Neu5Ac(a2-6)GlcNAc(b1-4)GlcNAc
In short: as §1

[14] = biological target: Neu5Ac(a2-6)GlcNAc(b1-4)GlcNAc(b1-4)GlcNAc
In short: as §1

Neu5Ac(a2-8)Neu5Ac = biological target: Neu5Ac(a2-8)Neu5Ac
In short: as §1

[15] = biological target: Neu5Ac(a2-8)Neu5Ac(a2-3)Gal(b1-3)GalNAc(b1-4)[Neu5Ac(a2-3)]Gal(b1-4)Glc
In short: as §1

[16] = biological target: Neu5Ac(a2-8)Neu5Ac(a2-3)Gal(b1-3)GalNAc(b1-4)[Neu5Ac(a2-8)Neu5Ac(a2-3)]Gal(b1-4)Glc
In short: as §1

[17] = biological target: Neu5Ac(a2-8)Neu5Ac(a2-3)Gal(b1-4)Glc
In short: as §1

[18] = biological target: Neu5Ac(a2-8)Neu5Ac(a2-3)Gal(b1-4)GlcNAc
In short: as §1

[19] = biological target: Neu5Ac(a2-8)Neu5Ac(a2-3)[Gal(b1-3)GalNAc(b1-4)]Gal(b1-4)Glc
In short: as §1

[20] = biological target: Neu5Ac(a2-8)Neu5Ac(a2-3)[GalNAc(b1-4)]Gal(b1-4)Glc
In short: as §1

[21] = biological target: Neu5Ac(a2-8)Neu5Ac(a2-8)Neu5Ac
In short: as §1

[22] = biological target: Neu5Ac(a2-8)Neu5Ac(a2-8)Neu5Ac(a2-3)Gal(b1-4)Glc
In short: as §1

[23] = biological target: Neu5Ac(a2-8)Neu5Ac(a2-8)Neu5Ac(a2-3)[Gal(b1-3)GalNAc(b1-4)]Gal(b1-4)Glc
In short: as §1

[24] = biological target: Neu5Ac(a2-8)Neu5Ac(a2-8)Neu5Ac(a2-3)[GalNAc(b1-4)]Gal(b1-4)Glc
In short: as §1

[25] = biological target: Neu5Ac(a2-8)Neu5Ac(a2-8)Neu5Ac(a2-8)Neu5Ac(a2-3)[GalNAc(b1-4)]Gal(b1-4)Glc
In short: as §1

[26] = biological target: Neu5Ac(a2-8)Neu5Gc(a2-3)Gal(b1-4)GlcNAc
In short: as §1

[27] = biological target: Neu5Ac(b2-6)Gal(b1-4)GlcNAc
In short: as §1

Neu5Ac(b2-6)GalNAc = biological target: Neu5Ac(b2-6)GalNAc
In short: as §1

[28] = biological target: Neu5Ac9Ac(a2-3)Gal(b1-3)GlcNAc
In short: as §1

[29] = biological target: Neu5Ac9Ac(a2-3)Gal(b1-4)GlcNAc
In short: as §1

[30] = biological target: Neu5Ac9Ac(a2-6)Gal(b1-4)GlcNAc
In short: as §1

[31] = biological target: Neu5Gc(a2-3)Gal(b1-3)GlcNAc
In short: as §1

[32] = biological target: Neu5Gc(a2-3)Gal(b1-3)[Fuc(a1-4)]GlcNAc
In short: as §1

Neu5Gc(a2-3)Gal(b1-4)Glc = biological target: Neu5Gc(a2-3)Gal(b1-4)Glc
In short: as §1

[33] = biological target: Neu5Gc(a2-3)Gal(b1-4)GlcNAc
In short: as §1

[34] = biological target: Neu5Gc(a2-3)Gal(b1-4)GlcNAc(b1-3)Gal(b1-4)GlcNAc(b1-2)Man(a1-3)[Neu5Gc(a2-3)Gal(b1-4)GlcNAc(b1-3)Gal(b1-4)GlcNAc(b1-2)Man(a1-6)]Man(b1-4)GlcNAc(b1-4)GlcNAc
In short: as §1

[35] = biological target: Neu5Gc(a2-3)Gal(b1-4)[Fuc(a1-3)]GlcNAc
In short: as §1

[36] = biological target: Neu5Gc(a2-6)Gal(b1-4)GlcNAc
In short: as §1

Neu5Gc(a2-6)GalNAc = biological target: Neu5Gc(a2-6)GalNAc
In short: as §1

[37] = biological target: Neu5Gc(a2-8)Neu5Ac(a2-3)Gal(b1-4)GlcNAc
In short: as §1

[38] = biological target: Neu5Gc(a2-8)Neu5Gc(a2-3)Gal(b1-4)GlcNAc
In short: as §1

[39] = biological target: Neu5Gc(a2-8)Neu5Gc(a2-3)Gal(b1-4)GlcNAc(b1-3)Gal(b1-4)GlcNAc
In short: as §1

[40] = biological target: Neu5Gc(a2-8)Neu5Gc(a2-6)Gal(b1-4)GlcNAc
In short: as §1

[41] = biological target: Neu5Gc(b2-6)Gal(b1-4)GlcNAc
In short: as §1

B1: Mermaid3 (Stilbonema majum) (protein)
chain: MGSSHHHHHHSSGLVPRGSHMAASGWLRSPQGTVVKLYRRSLSWSKADEFCKDVDGRLVVDRTADMHLFLIKNVLKEKKSRVWVGLRRTASHSRTWIWSDGTRQNEGDLDANLWLRDEPNDAAGEEECALFMYSPWEKAWGLNDYLCRGGCRNYQFICEKWIR
[1]
  glycan array binding signal (z-score): -0.284
[2]
  glycan array binding signal (z-score): 0.359
[3]
  glycan array binding signal (z-score): -0.34
[4]
  glycan array binding signal (z-score): -0.198
[5]
  glycan array binding signal (z-score): 0.016
[6]
  glycan array binding signal (z-score): -0.45
[7]
  glycan array binding signal (z-score): 0.978
[8]
  glycan array binding signal (z-score): -0.578
[9]
  glycan array binding signal (z-score): -0.712
[10]
  glycan array binding signal (z-score): -0.732
Neu5Ac(a2-6)GalNAc
  glycan array binding signal (z-score): -0.725
[11]
  glycan array binding signal (z-score): -0.594
[12]
  glycan array binding signal (z-score): -0.473
[13]
  glycan array binding signal (z-score): -0.709
[14]
  glycan array binding signal (z-score): 0.677
Neu5Ac(a2-8)Neu5Ac
  glycan array binding signal (z-score): -0.57
[15]
  glycan array binding signal (z-score): -0.831
[16]
  glycan array binding signal (z-score): 2.95
[17]
  glycan array binding signal (z-score): -0.872
[18]
  glycan array binding signal (z-score): -0.414
[19]
  glycan array binding signal (z-score): -0.231
[20]
  glycan array binding signal (z-score): -0.629
[21]
  glycan array binding signal (z-score): -0.478
[22]
  glycan array binding signal (z-score): -0.616
[23]
  glycan array binding signal (z-score): -0.283
[24]
  glycan array binding signal (z-score): -0.579
[25]
  glycan array binding signal (z-score): -0.231
[26]
  glycan array binding signal (z-score): -0.607
[27]
  glycan array binding signal (z-score): -0.658
Neu5Ac(b2-6)GalNAc
  glycan array binding signal (z-score): -0.572
[28]
  glycan array binding signal (z-score): -0.518
[29]
  glycan array binding signal (z-score): -0.2
[30]
  glycan array binding signal (z-score): -0.153
[31]
  glycan array binding signal (z-score): -0.146
[32]
  glycan array binding signal (z-score): 0.423
Neu5Gc(a2-3)Gal(b1-4)Glc
  glycan array binding signal (z-score): 1.91
[33]
  glycan array binding signal (z-score): -0.313
[34]
  glycan array binding signal (z-score): -0.745
[35]
  glycan array binding signal (z-score): 2.08
[36]
  glycan array binding signal (z-score): 0.94
Neu5Gc(a2-6)GalNAc
  glycan array binding signal (z-score): 0.785
[37]
  glycan array binding signal (z-score): -0.587
[38]
  glycan array binding signal (z-score): -0.787
[39]
  glycan array binding signal (z-score): -0.82
[40]
  glycan array binding signal (z-score): -0.516
[41]
  glycan array binding signal (z-score): -0.424
